Reference: the RNAGym collection of RNA variant scans (doi:10.1073/pnas.2313332121)
Variants at the background level are over-represented here.

B1: TPR 5TU (parent)
chain: GGAUCUUCUCGAUCUAACAAAAAAGACAAAUCUGCCACAAAGCUUGAGAGCAUCUUCGGAUGCAGAGGCGGCAGCCUUCGGUGGCGCGAUAGCGCCAACGUUCUCAACUAUGACACGCAAAACGCGUGCUCCGUUGAAUGGAGUUUAUCAUG

Variants of: B1
Assay: polymerase ribozyme fitness, log enrichment relative to wild type (log ratio); higher = more active; in vitro selection for triplet polymerase activity
In short: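 Mutant libraries were PCR-built and transcribed for each subunit of a heterodimeric triplet polymerase ribozyme and selected for one round in triplicate at −7 °C, frozen, before gel excision of extended constructs and streptavidin-bead capture. Input and output libraries were Illumina-sequenced, keeping genotypes with ≥10 input reads and ≥1 read per output. Fitness is a logarithmic ratio of genotype to wild-type enrichment, in base 2, using inverse-variance-weighted replicate averages.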

Variant	polymerase ribozyme fitness (log ratio)
A40C U61A G65A G70U C76A A110G G126A	≤ -4.2
A40U U56G C57G A121C U135G A137C G152C	≤ -4.2
A40U G86A G141A	-1.06
A40G A41U A49U G58C G74U C85A U139G G141C U148C	≤ -4.2
A41C C43U C63U G88U	≤ -4.2
A41C C54U U61G G68C	≤ -4.2
A40G G83A C103G	≤ -4.2
A41C G80C U134G	≤ -4.2
A40G G92U C108G A142U	≤ -4.2
A40C G128U G143U	≤ -4.2
A40U U55G C96G	-0.541
A40C G50U C69G C116U	-3.24
A40C U44G G100U A106C	≤ -4.2
A40G A64U U134G A142C	≤ -4.2
A40G U45A G126U C129A G141C	≤ -4.2
A41C G62A C87G G88U C103A C105U	≤ -4.2
A41C C57G	-1.09
A41C C79G C93G	≤ -4.2
A40G G59U C75A G88C	≤ -4.2
A41C A49G U82A A91G	≤ -4.2
A40C U44A U45G U77A	≤ -4.2
A40G G71A U78G C85A C93G	≤ -4.2
A41C G46A C57U C95U A115G	-3.25
A40U C57A G58C C79G	-3.81

Variant	polymerase ribozyme fitness (log ratio)
A40C G59C C69U C99U A107U	≤ -4.2
A40U C57U A89C C99G A119G	-1.22
A40G U55A G58A U90A U146A	≤ -4.2
A40C U53G C76A A91G A115G	≤ -4.2
A40U A41C U45G C99A C125U U130G A142U	≤ -4.2
A40U G140U	-3.81
A40U G67C G86A A89U C96G C132G A137U	≤ -4.2
A40C U55A G88A C108G C118U U130A	≤ -4.2
A41C A52C C69U C87A A119G G140U	≤ -4.2
A40G C54U A64C C72G A89U	≤ -4.2
A40C G92C	-1.84
A41C A47C C96U C103U A115G	-3.11
A40C U55G C63U C93U	-0.65
A41C G83U G124U	-0.893
A40U G48C C69G C85U	-1.48
A41C C96U A107U C131A G133A U146C	≤ -4.2
A41C U55A G133A	≤ -4.2
A40U	0.097
A40G	-1.51
A40U C43U G84A U127A	≤ -4.2
A40C U55G C85U	0.238
A40G U56A G83U A89C A97C G140A G143C	≤ -4.2
A41C C93U C123U	-1.59
A40C G59A A91U G92C G141U A142G A150C	≤ -4.2

Variant	polymerase ribozyme fitness (log ratio)
A40G C43A A52C C54A G94U U151A	≤ -4.2
A41C C85G A89G U102G G143A	≤ -4.2
A40C U55G G84C C96U C103U C118U	-3.51
A40G A47G A73G C79A G83U C87U U111C	≤ -4.2
A41C A91C	≤ -4.2
A40U G92C A147C	-0.761
A41C A49U A91U U139G	≤ -4.2
A41C G62C C72A	≤ -4.2
A40G C79U C87U G100C C125A U127A	≤ -4.2
A41C A47U G86U U90C C99G C118G A147C	≤ -4.2
A40C G86A C87U	≤ -4.2
A40G U44C C54U C125G	≤ -4.2
A40U U55G G92C A107G U134G	≤ -4.2
A40U C63A C72A C76A C103G	≤ -4.2
A41C U53A U102C C103G A113U	≤ -4.2
A41C A52G G86U	-2.67
A40U U78A C93U G140A	≤ -4.2
A41C U55A C93A	-3.32
A40G A52U A91C C108U G143C U148A	≤ -4.2
A41C A47C U78A C125U	≤ -4.2
A40U U55A C85A C116A	-0.563
A40G A49G C85U C95A	≤ -4.2
A41C U82A C93U C103A A106U U130G	≤ -4.2
A41C A47C G88U A97U	-4.03

Variant	polymerase ribozyme fitness (log ratio)
A41C A66G C79G G141A	≤ -4.2
A41C A89U C95U G124A C125G	-1.75
A40U G58U C95A A107C U146C	≤ -4.2
A41C C54A U56A A73U A89U U101G A115C C129G U134A	≤ -4.2
A40U A97U C108U	≤ -4.2
A41C C76U G81A A110C	≤ -4.2
A41C A60G G92A A106U	-3.98
A41C A98U G100A	≤ -4.2
A41C G50U G74A C75G U77G C79A G88U C93U	≤ -4.2
A40U A52C U82G C87G C93U A142C	≤ -4.2
A40C G50U U61C C79G C93A	≤ -4.2
A40U G71U C85G	≤ -4.2
A40U C95U G143U	≤ -4.2
A40G A47C G86U C105G	≤ -4.2
A40C G59A G71U G94C U127C	≤ -4.2
A40C G84A G94A C131U U139A	-4.09
A40U G92A A119C A120C U148G	≤ -4.2
A40U G81C C87G	≤ -4.2
A41C C85U A89G U90G A106G	≤ -4.2
A41C C43U C125U	≤ -4.2
A41C C93U C105U	-1.68
A41C C72G C76A C116G C118U	≤ -4.2
A40G C108G	≤ -4.2
A40C U55A A89C	0.0362

Variant	polymerase ribozyme fitness (log ratio)
A40G A52U U53A G71A G83U A106U	≤ -4.2
A41C G59U G88A A120G	≤ -4.2
A40G A66G G67A G84U A107C C116U G126U	≤ -4.2
A40G G71A C96G	≤ -4.2
A40G U53A A73U C93G A113U	≤ -4.2
A40C U55A A107G A142G	≤ -4.2
A41C G67U C129G A137G A142C	≤ -4.2
A41C C57G G67U G92C G141A	≤ -4.2
A41C G86U C99G G133C A138G G140U	≤ -4.2
A40U U56A	-0.0589
A40C U56A G59A C87A A89C G112U A119U G143A	≤ -4.2
A40U G70C C79G A106G U135C U145G A150C	≤ -4.2
A40C U55G G59C C75A U82G C96G U111G U148A A150C	≤ -4.2
A40U C75U U148A	≤ -4.2
A41C C87U C93A	≤ -4.2
A40U G74U C85U C93A A107U G124U U135G	≤ -4.2
A40U U61A C76U C103G G128C	≤ -4.2
A40C G74A G81A C95U C116G	≤ -4.2
A41C A52U A66C U102G U134A	≤ -4.2
A41C G68C	≤ -4.2
A40U C43G C51A U55A G81A G92C A113U U144C	≤ -4.2
A41C G46A U90A A150G	≤ -4.2
A40U G59U C75G U82G C99U A137U G141C	≤ -4.2
A40U C114U G141C G152U	-3.44

Variant	polymerase ribozyme fitness (log ratio)
A40U U56A C85G C114G	-3.79
A41C C76U G84U	-2.96
A41C G42A U61A C76G U127A A138U	≤ -4.2
A40C G86A G141C A147C	≤ -4.2
A40G U53G A73G G81U G94A	≤ -4.2
A41C G80A C87A	≤ -4.2
A41C U102C G143A C149G	≤ -4.2
A40G A41U	-2.41
A40U U45C U55A A106G A120U C125U U144C	≤ -4.2
A41C C131A U139A	≤ -4.2
A40U G94A U104C A110G C118U G140A	≤ -4.2
A40C U45A C93A	≤ -4.2
A41C G48C C76U G88U	≤ -4.2
A40U U130A	-3.96
A41C G48A A49C U55A G136U A142G	≤ -4.2
A41C A73C C87A A115U	≤ -4.2
A41C A66C A147G	≤ -4.2
A40C G50U G59A C76G C87U A89G A107U G126U	≤ -4.2
A40U U53A G81U G84A C116A G140A G143A	≤ -4.2
A40G C75U G94C U130G C131A	≤ -4.2
A41C A47G A107G U109G C129A A137U U145G G152A	≤ -4.2
A40U G94U G136C	-4.02
A40C G86C G88U	≤ -4.2
A40G C54U C76U A91C C95G G143U	≤ -4.2

Variant	polymerase ribozyme fitness (log ratio)
A41C U55A C75U C93A C105A C108A A110U	≤ -4.2
A41C U45A G68A C85A C118G C129U U144C U146A	≤ -4.2
A40G C54G C93A C103G A121G U146C	≤ -4.2
A40U G62U C72G G80C U82C A138U	≤ -4.2
A40G G50A U53G G58A	≤ -4.2
A40C U61G U135G U139G	≤ -4.2
A41C U56A C87U U135G	≤ -4.2
A41C G67A G81U G94C A107C	≤ -4.2
A40G U45A A47C C99U A115C G124C	≤ -4.2
A40U G88C U101G	≤ -4.2
A40G U55A C76G G81A G86U C149U	≤ -4.2
A40U A64G C93A A98G A107C U130G	≤ -4.2
A41C U44A G46A U56A G65U U102C U134A	≤ -4.2
A40G G48C U55A U145G U148C C149G	≤ -4.2
A41C G70C G74U C93U	≤ -4.2
A41C U55G C63U G83A C85U A98G C123G G140U	≤ -4.2
A41C U56A C87U	-1.41
A40G A52G A91U U102C A138U G143U	≤ -4.2
A40G A52U G62A	≤ -4.2
A41C C79G	≤ -4.2
A40U G67C A91U U111A G117C A119U G141A	≤ -4.2
A40U G50A G71C G74C U78C U104A A150U	≤ -4.2
A40G G50A G58A	≤ -4.2
